# Data taken from PubChem BioAssay (NCATS).
# Where “and” joins values, the source holds several entries; their conditions need not be identical. Equal entries are not always repeated. Inconclusive results, whose numbers are uncertain, are shown with a selection of clear calls. For some of these results: A potency beside an inconclusive call is a rough fit, not a confirmed value. More than one record can exist for a structure, and the calls need not agree. Calls of active or inactive are those of the source. Calls come from the whole dose curve; as a rule, active = well fitted curve in the direction sought with a large enough effect; inconclusive = small, poorly fitted or top-dose-only effect, or another doubt; inactive = no such curve, though single readings can be large; an effect the other way counts as inactive or inconclusive.
# Key:
# CRL-7250 = normal cell line; assay: Cytotoxic Profiling of Annotated Libraries Using Quantitative High-Throughput Screening (AID 1296008); details: Five cell lines viability, CellTiter-Glo ATP luminescence, 48-72 h; max response: stronger effect = lower value; note: nearly all actives have a fitted effect of over 60% in size; note: potency is the fitted concentration of half-maximal effect; for max response: % is set by controls: 0 for no effect and ±100 for the full control effect
# Outline: (§1)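 Cells exposed to compounds for 48 or 72 hr at 37 degrees Celsius. Viability read as ATP-coupled luminescence with CellTiter-Glo after 10 min at room temperature.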
# HEK293 = assay: as above; details: Five cell lines viability, CellTiter-Glo ATP luminescence, 48-72 h; max response: stronger effect = lower value
# Outline: as §1
# KB-3-1 = assay: as above; details: Five cell lines viability, CellTiter-Glo ATP luminescence, 48-72 h; max response: stronger effect = lower value
# Outline: as §1
# MCC-13 = assay: qHTS assay to identify novel small-molecules to repurpose for Merkel cell carcinoma treatment (AID 1296009); details: MCC and control cell lines, CellTiter-Glo viability, 72 h; series mostly up to 46 µM; note: nearly all actives have a fitted effect of over 60% in size; note: potency is the fitted concentration of half-maximal effect; for activity change, negative = cytotoxicity: % is set by controls: 0 for no effect and ±100 for the full control effect
# Outline: (§2)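 CellTiter-Glo luminescence after 72 hr compound exposure at 37 degree celsius gave cell viability. Libraries NPC and MIPE were run as 8- and 11-point dose responses; RLUs normalized to DMSO (negative) and no-cell (cytotoxicity) controls.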
# MCC-26 = assay: as above; details: MCC and control cell lines, CellTiter-Glo viability, 72 h; series mostly up to 46 µM
# Outline: as §2
# UISO = assay: as above; details: MCC and control cell lines, CellTiter-Glo viability, 72 h; series mostly up to 46 µM
# Outline: as §2
# WaGa = assay: as above; details: MCC and control cell lines, CellTiter-Glo viability, 72 h; series mostly up to 46 µM
# Outline: as §2
# CAOV3 = assay: Primary qHTS to identify gynecologic anti-cancer compounds using libraries of approved drugs and bioactive compounds (AID 1345084); details: Gynecologic cancer cell panel viability, ATPlite luminescence, 48 h; series mostly up to 57.5 µM; note: nearly all actives have a fitted effect of over 55% in size; note: potency is the fitted concentration of half-maximal effect
# Outline: (§3)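 Luminescence from the ATPlite ATP-monitoring reagent indicates viable cell number; lower signal means cytotoxicity. Cells received compound 16 h after seeding and were exposed for 48 h across five concentrations.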
# CASKI = assay: as above; details: Gynecologic cancer cell panel viability, ATPlite luminescence, 48 h; activity change, negative = cytotoxicity: at 57.5 µM (top of the series)
# Outline: as §3
# W2 = assay: qHTS profiling for inhibitors of Plasmodium falciparum proliferation (AID 504749); details: P. falciparum in erythrocytes, SYBR Green DNA, 72 h; series mostly up to 28.7 µM
# Outline: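 SYBR Green fluorescence (ex 485 nm, em 535 nm) reports parasite DNA after 72 h compound exposure of infected red cells at 0.3% parasitemia, 2.5% hematocrit; signal normalized to 0.29 uM artemisinin and vehicle wells.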
# NIH3T3 = assay: Cytotoxic Profiling of Annotated Libraries Using Quantitative High-Throughput Screening (AID 1296008); details: Five cell lines viability, CellTiter-Glo ATP luminescence, 48-72 h; max response: stronger effect = lower value; note: nearly all actives have a fitted effect of over 60% in size; note: potency is the fitted concentration of half-maximal effect; for max response: % is set by controls: 0 for no effect and ±100 for the full control effect
# Outline: as §1
# MKL-1 = assay: qHTS assay to identify novel small-molecules to repurpose for Merkel cell carcinoma treatment (AID 1296009); details: MCC and control cell lines, CellTiter-Glo viability, 72 h; series mostly up to 46 µM; note: nearly all actives have a fitted effect of over 60% in size; note: potency is the fitted concentration of half-maximal effect
# Outline: as §2
# MKL-2 = assay: as above; details: MCC and control cell lines, CellTiter-Glo viability, 72 h; series mostly up to 46 µM
# Outline: as §2
# astro = assay: Drug repurposing screens with cells derived from glioblastoma tumor samples (AID 1345199); details: viability, ATP luminescence, 48 h; activity, negative = cell killing: at 45.9 µM (top of the series); note: potency is the fitted concentration of half-maximal effect; nearly all actives have a fitted effect of over 40% in size
# Outline: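 Primary testing used CD133+ neurospheres from four GBM patients, seven concentrations, 48 h exposure and ATP-based viability; confirmation added three slower-growing patient lines.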
# [1] = qHTS assay to identify inhibitors of the type 1 interferon - major histocompatibility complex class I in skeletal muscle: Counter screen cell viability and HiBit confirmation (AID 1347412); details: iHSKM muscle cells + IFN-b, HiBiT or CellTiter-Glo, 24 h; HiBiT; at 45.9 µM (top of the series)
# Outline: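 Myoblasts (C25cl48, HLA-B HiBiT) seeded in medium without dexamethasone, IFN-b 4 ng/ml added except unstimulated columns; 1 hr later compounds pinned (12-pt 1:3, top 46 uM final). Incubated 24 hrs, lysed 10 min, luminescence measured.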
# C33A = assay: Primary qHTS to identify gynecologic anti-cancer compounds using libraries of approved drugs and bioactive compounds (AID 1345084); details: Gynecologic cancer cell panel viability, ATPlite luminescence, 48 h; series mostly up to 57.5 µM; note: nearly all actives have a fitted effect of over 55% in size; note: potency is the fitted concentration of half-maximal effect
# Outline: as §3
# Es-2 = assay: as above; details: Gynecologic cancer cell panel viability, ATPlite luminescence, 48 h; series mostly up to 57.5 µM
# Outline: as §3
# HaCat = assay: Cytotoxic Profiling of Annotated Libraries Using Quantitative High-Throughput Screening (AID 1296008); details: Five cell lines viability, CellTiter-Glo ATP luminescence, 48-72 h; max response: stronger effect = lower value; note: nearly all actives have a fitted effect of over 60% in size; note: potency is the fitted concentration of half-maximal effect; for max response: % is set by controls: 0 for no effect and ±100 for the full control effect
# Outline: as §1
# Tags give direction and shape of the fitted curve.
compound,measurement,setting,value
O=C1NC(=O)C(c2cnc3ccccn23)=C1c1cn2c3c(cccc13)CN(C(=O)N1CCOCC1)CC2,Potency,CRL-7250,active: 0.0166 µM
same,Potency,HEK293,"inconclusive: 4.11 µM [inhibitor, full curve]"
same,Potency,KB-3-1,"inconclusive: 23.1 µM [inhibitor, partial curve, poor fit]"
same,Potency,MCC-13,"inconclusive: 0.833 µM [inhibitor, full curve]"
same,Potency,MCC-26,"inconclusive: 0.166 µM [inhibitor, full curve]"
same,Potency,UISO,"inconclusive: 0.0187 µM [inhibitor, full curve]"
same,Potency,WaGa,"inconclusive: 18.7 µM [inhibitor, partial curve]"
same,Potency,CAOV3,inconclusive: 0.631 µM
same,Potency,CASKI,active: 3.16 µM
CC12CC3CC(C)(C1)CC(N)(C3)C2,Potency,W2,"inconclusive: 1.9 µM [inhibitor, single point]"
same,Potency,CRL-7250,"inconclusive: 33.5 µM [inhibitor, single point]"
same,max response,HEK293,inactive: -1.65% and inactive: -16.7%
same,max response,NIH3T3,inactive: 1.33% and inactive: -0.312%
same,Potency,MCC-26,inactive
same,Potency,MKL-1,inactive
same,Potency,MKL-2,"inconclusive: 5.9 µM [inhibitor, partial curve, poor fit]"
same,Potency,WaGa,active: 3.72 µM and inactive
same,Potency,CAOV3,"inconclusive: 20 µM [cytotoxic, single point]"
O[C@@H](CNC[C@H](O)[C@H]1CCc2cc(F)ccc2O1)[C@@H]1CCc2cc(F)ccc2O1,Potency,CRL-7250,"inconclusive: 33.5 µM [inhibitor, single point]"
same,Potency,HEK293,"inconclusive: 37.2 µM [inhibitor, single point]"
same,Potency,NIH3T3,"inconclusive: 26.4 µM [inhibitor, single point]"
same,Potency,MCC-13,"inconclusive: 29.9 µM [inhibitor, single point]"
same,Potency,MCC-26,"inconclusive: 29.9 µM [inhibitor, single point]"
same,Potency,MKL-1,"inconclusive: 23.5 µM [inhibitor, single point] and inconclusive: 23.7 µM [inhibitor, single point]"
same,Potency,MKL-2,"active: 26.4 µM and inconclusive: 26.6 µM [inhibitor, single point]"
same,Potency,WaGa,"inconclusive: 29.9 µM [inhibitor, single point]"
same,Potency,astro,"inconclusive: 14.1 µM [inhibitor, partial curve]"
same,"activity change, negative = inhibition",[1],inactive: 26%
same,Potency,C33A,"inconclusive: 28.2 µM [cytotoxic, single point]"
same,Potency,CAOV3,"inconclusive: 39.8 µM [cytotoxic, single point]"
same,Potency,CASKI,"inconclusive: 31.6 µM [cytotoxic, single point]"
same,Potency,Es-2,"inconclusive: 39.8 µM [cytotoxic, single point]"
CN(C(=O)CCCOc1ccc2[nH]c(=O)ccc2c1)C1CCCCC1,Potency,W2,inconclusive: 0.169 µM [activator]
same,Potency,CRL-7250,"inconclusive: 21.1 µM [inhibitor, partial curve]"
same,Potency,HEK293,"inconclusive: 29.9 µM [inhibitor, single point]"
same,Potency,HaCat,"inconclusive: 9.44 µM [inhibitor, partial curve]"
same,Potency,CAOV3,inactive
CCOC(=O)N1CCN([N+]([O-])=NOc2cc(ON=[N+]([O-])N3CCN(C(=O)OCC)CC3)c([N+](=O)[O-])cc2[N+](=O)[O-])CC1,outcome,CRL-7250,inactive
same,Potency,HEK293,"inconclusive: 37.2 µM [inhibitor, single point]"
same,outcome,KB-3-1,inactive
same,Potency,MCC-13,"inconclusive: 33.2 µM [inhibitor, single point]"
same,Potency,MKL-1,"inconclusive: 33.2 µM [inhibitor, single point]"
same,Potency,MKL-2,active: 23.5 µM
same,Potency,UISO,"inconclusive: 33.2 µM [inhibitor, single point]"
Nc1nc(N)c2nc(CNc3ccc(C(=O)NC(CCC(=O)O)C(=O)O)cc3)cnc2n1 (stereo not given),Potency,CRL-7250,active: 0.118 µM
same,Potency,HEK293,active: 0.132 µM
same,Potency,KB-3-1,active: 0.0332 µM
same,Potency,NIH3T3,active: 0.0935 µM
same,Potency,MCC-13,"inconclusive: 0.118 µM [inhibitor, full curve, poor fit]"
same,Potency,UISO,"inconclusive: 0.0418 µM [inhibitor, full curve]"
same,Potency,WaGa,"inconclusive: 10.5 µM [inhibitor, partial curve, poor fit]"
Cc1ccc(NC(=O)c2cccc(N(C)C)c2)cc1NC(=O)c1ccc(O)cc1,Potency,CRL-7250,"inconclusive: 29.6 µM [inhibitor, single point]"
same,Potency,HEK293,"inconclusive: 33.2 µM [inhibitor, single point]"
same,max response,KB-3-1,inactive: 5.76%
same,Potency,UISO,"inconclusive: 23.5 µM [inhibitor, single point]"
